About 2,200 (0.71%) of roughly 310,000 compounds showed an effect of 50% or more. The effect is printed as a negative number. This is one part of the list.

human ether-à-go-go-related gene (hERG) potassium channel, sequence (Q12809 whole entry, looked up): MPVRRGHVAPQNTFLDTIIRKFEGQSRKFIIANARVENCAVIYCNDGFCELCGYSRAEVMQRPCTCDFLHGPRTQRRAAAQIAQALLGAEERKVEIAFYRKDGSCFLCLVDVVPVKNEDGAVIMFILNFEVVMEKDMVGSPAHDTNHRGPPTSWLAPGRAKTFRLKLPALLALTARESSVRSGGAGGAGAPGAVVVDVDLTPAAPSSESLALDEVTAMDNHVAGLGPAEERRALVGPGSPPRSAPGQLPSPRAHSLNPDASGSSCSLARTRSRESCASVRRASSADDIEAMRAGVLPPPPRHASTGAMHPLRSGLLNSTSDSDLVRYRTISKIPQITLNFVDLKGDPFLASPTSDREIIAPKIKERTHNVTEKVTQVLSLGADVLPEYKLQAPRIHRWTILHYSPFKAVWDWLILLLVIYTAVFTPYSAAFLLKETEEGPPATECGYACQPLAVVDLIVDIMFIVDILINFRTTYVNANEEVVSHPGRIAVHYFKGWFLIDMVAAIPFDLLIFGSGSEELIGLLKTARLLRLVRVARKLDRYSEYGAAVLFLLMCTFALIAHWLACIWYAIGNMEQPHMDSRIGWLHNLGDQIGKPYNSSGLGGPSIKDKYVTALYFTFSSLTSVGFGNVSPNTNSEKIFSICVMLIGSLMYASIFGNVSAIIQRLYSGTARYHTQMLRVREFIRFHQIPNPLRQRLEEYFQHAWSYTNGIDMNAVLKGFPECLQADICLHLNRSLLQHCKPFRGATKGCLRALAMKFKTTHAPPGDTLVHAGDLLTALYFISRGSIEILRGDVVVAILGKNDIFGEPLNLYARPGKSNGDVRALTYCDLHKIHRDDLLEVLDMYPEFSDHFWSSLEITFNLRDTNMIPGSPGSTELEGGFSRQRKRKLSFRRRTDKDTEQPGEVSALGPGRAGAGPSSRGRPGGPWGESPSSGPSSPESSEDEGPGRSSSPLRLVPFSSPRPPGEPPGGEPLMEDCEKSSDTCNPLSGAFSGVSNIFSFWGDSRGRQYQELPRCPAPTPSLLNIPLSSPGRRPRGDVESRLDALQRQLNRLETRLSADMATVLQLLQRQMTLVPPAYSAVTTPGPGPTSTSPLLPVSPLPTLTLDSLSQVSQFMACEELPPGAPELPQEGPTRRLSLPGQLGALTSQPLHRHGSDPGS

This test has as its target human ether-à-go-go-related gene (hERG) potassium channel (human, UniProt Q12809). Description: primary screen, population patch clamp on CHO cells stably expressing hERG.
As to `Cc1cc(NC(=O)COC(=O)C2CC(=O)N(c3ccc(Cl)cc3)C2)no1` (stereo not drawn), the “hERG current change (%, negative = inhibition) at 1uM” value was 5%.
As for `CCC(=NCCO)c1c(O)n(C2CCCCC2)c(=O)[nH]c1=O`, the figure is -4.1%.
With `Cc1ccc(NC(=S)N2CCN(C(=O)C3CCCO3)CC2)c(C)c1` (stereo not drawn) the figure was -1.16%; with `O=C(O)CC1(CC(=O)Nc2ccc3ccccc3n2)CCCCC1`, 15.2%; with `N#Cc1c(-c2ccccc2)cc(-c2ccccc2)nc1SCc1nnc(-c2ccccc2)o1`, 12.2%.
As for `COc1ccccc1C(=O)Oc1cc(N)n(S(=O)(=O)c2ccccc2)n1`, the figure is 11.1%; as for `Cc1ccc(-c2csc3ncnc(SCc4ccc(C(=O)O)cc4)c23)cc1`, -2.34%; as for `c1cncc(-c2cn(C[C@H]3CC[C@@H]([C@@H]4CC[C@H](Cn5cc(-c6cccnc6)nn5)O4)O3)nn2)c1`, -17.7%.
Regarding `Cc1ccc(Nc2ccc(C(=O)O)cc2[N+](=O)[O-])cc1`, the “hERG current change (%, negative = inhibition) at 1uM” value came out at 10.5%.
Regarding `CCc1nc2c(c(=O)c3ccccc3n2C)c(=O)n1-c1ccc(F)cc1`, the “hERG current change (%, negative = inhibition) at 1uM” value is listed as 8.24%.
As for `COCCN(C(=O)CCC(=O)Nc1nccs1)C(C(=O)NCCC(C)C)c1ccc(F)cc1` (stereo not drawn), the figure is -2.01%.
As for `CCOC(=O)N1CCN(S(=O)(=O)c2c(C)cc(C)cc2C)CC1`, the figure is 4.19%; as for `CC1CC(C)CN(Cc2nc3c(c(=O)n(C)c(=O)n3C)n2CCN2CCOCC2)C1` (stereo not drawn), 3.67%.
As for `Cc1csc(=O)n1CCC(=O)OCC(=O)c1c(N)n(CC(C)C)c(=O)n(C)c1=O`, the figure is 15.8%; as for `O=C(NCCCN1CCCC1)c1ccc(Cn2c(=S)[nH]c3ccc(Br)cc3c2=O)cc1`, 19.5%.
As to `CC1C(c2ccccc2)=NNc2nc3c(c(=O)n(C)c(=O)n3C)n21` (stereo not drawn), the “hERG current change (%, negative = inhibition) at 1uM” value is on record as 10.8%.
As for `O=C(CSc1ccc([N+](=O)[O-])cn1)Nc1ccc2[nH]c(=O)[nH]c2c1`, the figure is 13.1%; as for `COc1cccc(-c2nnn(CC(=O)N(CC(C)C)C3CCS(=O)(=O)C3)n2)c1` (stereo not drawn), 3.74%; as for `O=C(CCc1nnc2n(Cc3ccc(F)cc3)c(=O)c3ccccc3n12)N1CCN(c2ccccn2)CC1`, -33.7%.
As for `CCOC(=O)c1c(C)[nH]c(C)c1S(=O)(=O)N(C)CC(=O)Nc1ccc(C)cn1`, the figure is 6.69%.
As for `C=CCn1c(SCCN2C(=O)c3ccccc3C2=O)nc2scc(-c3ccccc3)c2c1=O`, the figure is 1.5%.
Consider `CC(C)(C)OC(=O)N1CCC(c2c(C(=O)N3CCN(C(=O)c4ccco4)CC3)cnn2-c2ccc(F)cc2F)CC1`, for which the “hERG current change (%, negative = inhibition) at 1uM” value is 3.08%.
Turning to `CC(C)(C)c1nc[nH]c(=O)c1Br`, the “hERG current change (%, negative = inhibition) at 1uM” value is 15.2%.
With `Cc1ccc(-n2nnc3c(=O)n(CC(=O)NCC4CCCO4)cnc32)cc1` (stereo not drawn) the figure was 5.51%; with `CN1CCN(c2ccc(NC(=O)CN3CCOCC3)cc2F)CC1`, 14.5%.
With `CCOc1ccccc1-c1nc(-c2ccc(NC(=O)Cc3ccccc3OC)cc2)no1`, the “hERG current change (%, negative = inhibition) at 1uM” value amounted to 17.1%.
With `CC1=C(C(=O)OCC(C)C)C(c2ccc(Br)s2)NC(=O)N1` (stereo not drawn) the figure was 12.2%.
As for `C=CC[N+](C)(C)c1ccc(CCC(=O)CCc2ccc([N+](C)(C)CC=C)cc2)cc1.[Br-]`, the figure is 7.44%.
As for `Cc1ccc(C(=O)Nc2ccc3c(c2)OCCO3)c(Cl)c1`, the “hERG current change (%, negative = inhibition) at 1uM” value stood at 15.9%.
With `CC(C)(C)NC(=O)C(c1ccc(F)cc1)N(CC1CCCO1)C(=O)CCC(=O)Nc1ccccn1` (stereo not drawn) the figure was 7.36%; with `CCCCOc1ccc(C(=O)N/C(=C\c2cccc([N+](=O)[O-])c2)C(=O)OCCC)cc1`, 16.1%; with `O=C(N/N=C/c1ccccc1O)/C(=C/c1ccccc1)CCO`, -0.633%.
On to `C=CCN1C(=O)CSC1=Nc1ccc(C(=O)O)cc1`, for which the “hERG current change (%, negative = inhibition) at 1uM” value worked out at 13.4%.
With `O=C(O)c1cc(-c2cc3ccccc3o2)nn1-c1ccccc1` the figure was 12.9%; with `COc1ccc2[nH]c(=O)c(-c3nnn(-c4ccc(Cl)c(Cl)c4)n3)cc2c1`, 14.6%.
As for `Cc1ccccc1CN(C)C(=O)CNC(=O)c1ccc2ccccc2c1`, the figure is 7.66%; as for `COc1ccc(C(=O)c2ccc(Br)cc2)cc1`, 5.65%; as for `Cc1nc(Oc2cccc(Cl)c2)c2oc3ccccc3c2n1`, 13.4%.
With `O=C(NCc1ccc(CNC(=O)c2ccco2)cc1)c1ccco1` the figure was 16.1%.
On to `CC(C)NC(=O)c1cnn2c1NC(c1cccs1)CC2C(F)(F)F` (stereo not drawn), for which the “hERG current change (%, negative = inhibition) at 1uM” value stood at 12.7%.
As for `O=C(OCc1ccco1)c1ccc(S(=O)(=O)N2CCCCC2)cc1`, the figure is 5.76%.
With `COc1cc2c(cc1OC)C(COc1ccc(F)cc1)N(C(=O)c1ccco1)CC2` (stereo not drawn) the figure was -3.29%; with `CC1CCN(C(=O)CSc2nnc(-c3cccs3)o2)CC1`, 3.3%; with `CN(C(=O)Nc1ccc(S(=O)(=O)N(C)C)cc1)C1CCCCC1`, 11.9%.
As for `CCC(=O)c1ccc(OCC(=O)OCC(=O)NC2CCCC2)cc1`, the figure is 14.5%; as for `Cc1ccc(C)c(NC(=O)C2CC(O)CN2C(=O)OC(C)(C)C)c1` (stereo not drawn), 17.2%; as for `Cc1ccc(-n2c(SCC(=O)NC3CCS(=O)(=O)C3)nc3ccccc3c2=O)cc1C` (stereo not drawn), 4.65%.
For the compound `CCN1CCN(c2ncnc3sc(C(=O)Nc4ccccc4F)c(C)c23)CC1`, the “hERG current change (%, negative = inhibition) at 1uM” value was -50.9%.
With `O=C(CSc1nnc2n1CCCN2)c1ccc([N+](=O)[O-])cc1` the figure was 5.45%; with `CS(=O)(=O)N1CCN(c2ccc(NC(=O)CSc3nnc(-c4ccco4)o3)cc2)CC1`, 24.4%; with `CCN1C(=O)c2ccccc2Sc2ccc(C(=O)NCCCN(CC(C)C)CC(C)C)cc21`, 3.09%.
With `Cn1c(N)c(C(=O)Nc2ccccc2F)sc1=S` the figure was 8.11%.
In the case of `CC1(c2ccccc2Cl)NC(=O)N(CC(=O)N2CCN(S(=O)(=O)c3ccccc3)CC2)C1=O` (stereo not drawn), the “hERG current change (%, negative = inhibition) at 1uM” value is 10.9%.
For the compound `COCC(C)n1c(SCC(=O)N2CCCCC2)nc2ccccc2c1=O` (stereo not drawn), the “hERG current change (%, negative = inhibition) at 1uM” value is -2.67%.
With `COCC(C)n1c(C)cc(C(=O)CN2C(=O)NC3(CCCCC3C)C2=O)c1C` (stereo not drawn) the figure was 16.2%; with `O=C(O)C1CCCCC1C(=O)Nc1ccc(F)c(F)c1` (stereo not drawn), 5.66%; with `Cc1ccccc1S(=O)(=O)Cc1ccc(C(=O)N2CCN(C3CCCCC3)CC2)o1`, -15.4%.
As for `COc1ccc(OCC(=O)N2CCN(Cc3ccc(SC)cc3)CC2)cc1.O=C(O)C(=O)O`, the figure is -16.7%; as for `COc1ccc(C(=O)Nc2nccs2)cc1[N+](=O)[O-]`, 20.8%.
With `C[C@H](O)Cc1cn(-c2cc3cc(C#Cc4ccsc4)ccc3oc2=O)nn1` the figure was 13.5%.
With `Cc1ccc(OCC(=O)O/N=C(\N)Cc2cccs2)cc1C`, the “hERG current change (%, negative = inhibition) at 1uM” value is 10.4%.
With `CC1CN(CCCCOc2cccc(Oc3ccccc3)c2)CC(C)O1.O=C(O)C(=O)O` (stereo not drawn) the figure was -1.37%; with `COc1ccc(CNS(=O)(=O)c2ccc(C3CNC(=O)C3)cc2)cc1` (stereo not drawn), 0.734%; with `COc1cccc(CN(C)CC(=O)Nc2cccc3ccccc23)c1.O=C(O)C(=O)O`, 10.5%.
As for `O=C(CCCOc1ccc(Cl)cc1Cl)NNC(=O)c1ccc(NC(=O)c2ccccc2)cc1`, the figure is 10.6%.
In the case of `COc1ccc([C@H]2CC(=O)C=C(c3cc(F)ccc3F)C2)cc1OC`, the “hERG current change (%, negative = inhibition) at 1uM” value is 11.4%.
With `COc1cc(C2NC(=O)NC(c3ccccc3)=C2C(C)=O)cc(Cl)c1OCC(=O)O` (stereo not drawn) the figure was 6.78%; with `CCOc1ccc(C(=O)Nc2cccc([N+](=O)[O-])c2)cc1Br`, 2.1%; with `O=C(N/N=C/c1ccccn1)c1cc(Br)ccc1O`, 4.71%.
With `N#CC1(NC(=O)COC(=O)CCCN=C2NS(=O)(=O)c3ccccc32)CCCCC1` the figure was 13.9%; with `CCOC(=O)C1=C(COc2ccc(C)cc2)NC(=O)NC1c1cc(C)ccc1C` (stereo not drawn), 21.2%; with `Cc1nc(NCCCn2ccnc2)c2oc3ccccc3c2n1.Cl`, -47.5%.
As to `CSc1nc(C2CC2)cc(-c2cccs2)c1C#N`, the “hERG current change (%, negative = inhibition) at 1uM” value is listed as 12.2%.
With `O=C(/C=C/c1cccc([N+](=O)[O-])c1)c1ccco1` the figure was 7.19%; with `COc1ccc(-n2cc(-c3ccccc3)c3c(N4CCN(CCO)CC4)ncnc32)cc1`, -4.15%; with `Cc1ccc(S(=O)(=O)Nc2cccc(-c3ccc(N4CCCCCC4)nn3)c2)cc1C`, 16.1%.
With `O=C(CSc1nc(O)cc(=O)n1-c1ccc(Cl)c(Cl)c1)Nc1ccc(Cl)cc1Cl` the figure was 11.3%; with `O=C(Nc1ccccc1-c1ccccc1)c1ccc(NC(=O)c2ccco2)cc1`, 6.82%.
Turning to `COc1cc2c(cc1OC)-c1cc3ccc(OC)c(OC)c3c[n+]1CC2.[Cl-]`, the “hERG current change (%, negative = inhibition) at 1uM” value came to 11.5%.
As for `Cc1nn(C)cc1CN(C)C(=O)CC12CC3CC(CC(C3)C1)C2`, the figure is 13.1%; as for `CCN(CC)CCCNC(=O)c1ccccc1NC(=O)C1=CSCCO1`, 5.12%.
With `COc1ccc(S(=O)(=O)N2CCOCC2)cc1NC(=O)CSc1n[nH]c(=O)n1C1CC1`, the “hERG current change (%, negative = inhibition) at 1uM” value turned out to be 9.1%.
As for `O=C(c1cccs1)N1CCN(c2ncccn2)CC1`, the figure is 2.95%.
With `CCN(CC(=O)NC(C)C)C(=O)C(CCSC)NC(=O)c1cccc(C)c1` (stereo not drawn) the figure was 8.43%.

(Values after article PMC4336329 (PLoS ONE, 2015).)
